# The other results are listed elsewhere or left out.
# System: PF3D7_0420300 AP2 domain 1 (GST-tagged)
# Assay: gcPBM binding intensity (ln(normalized median fluorescence intensity)); higher = stronger DNA binding
# Method in brief: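 The highest Masliner-normalised natural-log median intensity across replicate spots of either probe orientation is reported as binding intensity. GST-tagged P. falciparum DNA-binding domains expressed in E. coli were applied for 1 h to an Agilent 4 × 180k array of primer-extended double-stranded 36-bp intergenic genomic probes plus negative controls, and bound protein was detected with Alexa488 anti-GST antibody and scanned at 488 nm.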
row,Sequence,gcPBM binding intensity (ln)
1,TATTAATAAATTTATAAAACAGGTATATATATATAT [CACACA_negctrl_site615],9.15
2,TGCAGTCTGGAGAAGAGTACATAGTATCTGGTAGCT [XGTACX_site2021],9.13
3,AAGAAAACTTAAAATAAAAGCATATTTTATCTTACA [TGCATGCA_negctrl_site366],8.99
4,ATATATATATATATATGTACACACATCAATCATATT [XGTACX_site4005],9.41
5,AGAGTACAAGTAAATACACACATATAGATGAAAATA [CACACA_site6635],9.83
6,ATGTATATGATTAAATGTACGTAAACAAATTTGTAA [XGTACX_site8174],9.25
7,ACCACATAAAACAAATGTACTTGAAATATATGCGTA [XGTACX_site5155],9.32
8,CAAAGGGAAATTAACACACACATATTTATATTTATA [CACACA_site7202],9.76
9,ATAAAAAAAAGACACACACACATATATATATATATA [CACACA_site3073],9.67
10,TCAACACACGTGGAATGTACTTTAGTATAAGAATTC [XGTACX_site7842],9.23
11,TAAATATATTTCATGACATGCAACTTGTTTTTTTGT [TGCATGCA_site456],9.34
12,TATATATATATATAAACACACATAAATATAAATATA [CACACA_site1121],9.6
13,TCTTTTACAAAAGCTATAACATTCACCACATTATAA [GTGCAC_negctrl_site133],9.1
14,ATATATATATTTTATGCATGTTCATTTTCTATATTT [TGCATGCA_site442],9.62
15,AAAAAAAAAATATACACACACATATATATATATATA [CACACA_site3404],9.46
16,GTTAATGTGGTTACTTGTACATATTAACGTCTTTTT [XGTACX_site2617],9.26
17,ATAATATATACGTGTGTGCACATGACAAAAGCATAT,9.98
18,ATATTTTATATTTCTTGTACATATATTTGTAGATAT [XGTACX_site1140],9.23
19,TTTCTTACAACAACAACAAAAAAAAATAAATAAAAT [GTGCAC_negctrl_site711],9.37
20,TATTATTTTTTTATTCTATTAAAAAGAAAAAAATGA [CACACA_negctrl_site407],8.63
21,AATTTATTTTTAAAAAGTACATACTTAAGAAAACGA [XGTACX_site3660],9.16
22,TCGACAATTTTATAAAGTACTTATTAGAAATATGAA [XGTACX_site7133],8.8
23,CCATTTAAAACATTTTGTACTTATTTTACATTTCTG [XGTACX_site4270],9.4

row,Sequence,gcPBM binding intensity (ln)
1,GATTCATTTCATAATACACACAACAAATATTTCAAA [CACACA_site120],9.46
2,AGAAAAAAAAATTATACATGCATATACGTTTATTTT [TGCATGCA_site529],9.16
3,AAACAAATAAAATTTATTAAAAAGGTCATATTATTA [CACACA_negctrl_site85],9.12
4,TTTAATATAACTATTTGTACATAAAGAATATAAATA [XGTACX_site4594],8.86
5,TTTTTTTGCCATATTACACACACACGGGTAAACCCC [CACACA_site6874],9.98
6,TAAATTTTTATTTGTAGTACTATATATATATATATA [XGTACX_site1026],9.17
7,TAATGAAAATATATAACACACAAAAGTTATAAATAT [CACACA_site1189],9.57
8,GTGTTGAATTATGTGCTTTTTTCTTTCTACTCAGTA [XGTACX_negctrl_site464],9.62
9,CCCACAGACAAAAACACACACAAAGGTGTTCTTATA [CACACA_site4840],9.47
10,AAGAGAAAAAGAATGAAAGAAAAAAAAAAAAAATAT [CACACA_negctrl_site1527],9.37
11,TTTTTAAAGGTGATAAAACACACGATTTAGAAATGT [CACACA_site3160],9.24
12,TTATCGACCAATAAAGCATGCAAAAAAAAAAAAAAA [TGCATGCA_site788],8.83
13,CTACATAAAAAAATATGTACATATATATATATATAT [XGTACX_site667],9.1
14,AAAAAAAAAAAAAACACACACATACAGACAAAAATG [CACACA_site83],10.1
15,CTAAATTATAGATCAGTGCAATTTAATATGAGTCCA,9.13
16,TTGTAATTATTAAACACACACAAAATATATATAATA [CACACA_site2523],9.82
17,CCATAAAAATATAATACACACATATATATTAACATA [CACACA_site4102],9.66
18,GAACATTTGAAATATGCACACATGTATAAACATACA [CACACA_site5463],9.35
19,ATACATCGTATATAAGTGCATATTAAGGTCTTAAGA [GTGCAC_site9560],9.31
20,TATATATGTATCAAGTGTACAGTTTTAAAAAAAAAA [XGTACX_site6011],9.07
21,ACACACAATACAAAAGTGCATATAATAATTAATCAT,9.63
22,AAAAAAAAAAGACACACACACAAAATAAACAAACAA [CACACA_site7308],10.3
